Laboratory results reported in article PMC4336329 (PLoS ONE, 2015).
Screen size: about 310,000 compounds; about 14,000 (4.5%) showed an effect of 50% or more. The effect is printed as a negative number. The list shows a part of the results. Where a SMILES comes first, the peptide text is derived from it. The star is where a group is joined. Boc = CC(C)(C)OC(=O)*; OtBu = CC(C)(C)O*

molecular target: human ether-à-go-go-related gene (hERG) potassium channel (human, UniProt Q12809); experiment: primary screen, population patch clamp on CHO cells stably expressing hERG
Sequence (Q12809 whole entry, looked up): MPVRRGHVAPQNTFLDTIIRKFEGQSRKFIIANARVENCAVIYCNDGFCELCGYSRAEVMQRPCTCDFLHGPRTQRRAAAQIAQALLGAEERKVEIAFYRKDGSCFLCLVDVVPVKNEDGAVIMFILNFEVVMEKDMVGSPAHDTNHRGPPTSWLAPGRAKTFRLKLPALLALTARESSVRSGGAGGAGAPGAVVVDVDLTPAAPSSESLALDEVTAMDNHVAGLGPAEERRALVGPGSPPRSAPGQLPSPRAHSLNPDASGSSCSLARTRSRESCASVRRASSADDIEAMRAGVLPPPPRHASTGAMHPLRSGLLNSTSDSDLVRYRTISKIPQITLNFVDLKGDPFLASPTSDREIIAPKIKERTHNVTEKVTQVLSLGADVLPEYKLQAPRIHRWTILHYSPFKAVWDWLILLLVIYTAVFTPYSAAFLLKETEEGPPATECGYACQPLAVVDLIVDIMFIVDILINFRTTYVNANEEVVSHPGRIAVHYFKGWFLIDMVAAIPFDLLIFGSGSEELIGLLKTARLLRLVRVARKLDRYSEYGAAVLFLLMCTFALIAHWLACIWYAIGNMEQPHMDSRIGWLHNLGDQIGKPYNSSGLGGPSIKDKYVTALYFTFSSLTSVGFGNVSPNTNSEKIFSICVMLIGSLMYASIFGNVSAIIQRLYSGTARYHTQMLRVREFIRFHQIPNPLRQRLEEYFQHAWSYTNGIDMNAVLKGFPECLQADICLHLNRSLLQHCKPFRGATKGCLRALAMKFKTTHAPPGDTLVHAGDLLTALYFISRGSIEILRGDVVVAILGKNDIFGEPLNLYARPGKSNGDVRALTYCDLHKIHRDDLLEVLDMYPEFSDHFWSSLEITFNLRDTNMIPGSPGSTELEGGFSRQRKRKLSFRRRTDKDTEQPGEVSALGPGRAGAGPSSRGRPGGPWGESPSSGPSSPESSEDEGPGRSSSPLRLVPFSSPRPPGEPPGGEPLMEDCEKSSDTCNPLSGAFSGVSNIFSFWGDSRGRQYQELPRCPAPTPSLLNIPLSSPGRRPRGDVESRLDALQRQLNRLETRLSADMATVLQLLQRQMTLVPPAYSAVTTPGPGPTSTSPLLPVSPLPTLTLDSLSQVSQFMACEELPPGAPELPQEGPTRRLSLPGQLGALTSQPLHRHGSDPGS
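Note: peak tail current of the secondary pulse compared with the same well before compound.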

| SMILES | hERG current change (%, negative = inhibition) at 10uM |
| --- | --- |
| O=C(CSCc1ccc(Cl)cc1Cl)Nc1c[nH]c(=O)[nH]c1=O | 5.48% |
| O=C(Cn1c(=O)oc2ccccc21)NCC1COc2ccccc2O1 (stereo not shown) | 16.6% |
| CC(C(=O)Nc1ccc2c(c1)OCCO2)n1nnc(-c2ccccc2)n1 (stereo not shown) | 10.7% |
| CCn1cc(C(=O)N2CCCCC2)c(=O)c2cc(S(=O)(=O)N3CCC(C)CC3)ccc21 | -18.4% |
| Cc1cccc(N(C(=O)Cn2nnc3ccccc32)C(C(=O)NC(C)(C)C)c2ccsc2)c1C (stereo not shown) | 19.7% |
| CCn1cc(S(=O)(=O)NCCc2ccc(F)cc2)cn1 | -8.3% |
| O=C(CNS(=O)(=O)c1cccs1)N1CCCC1 | 14.9% |
| O=C(NN1C(=O)c2ccccc2NC1c1cccnc1)c1ccccc1 (stereo not shown) | 12.5% |
| CCN(c1ccccc1)S(=O)(=O)c1ccc(Cl)c(C(=O)N2CCCC2)c1 | 5.04% |
| Cc1ccc(Cl)cc1NC(=O)c1ccccc1OCC(=O)Nc1ccc(Cl)cc1 | -23.3% |
| CCC(=O)c1ccc(OCC(O)Cn2nc(C)c(C(C)=O)c2C)cc1 (stereo not shown) | -36.7% |
| CCOc1ccc(CCNC(=O)c2cccc(S(=O)(=O)N3CCOCC3)c2)cc1OCC | -6.89% |
| COc1ccc(NC(=O)c2ccc(=O)[nH]c2)cc1S(=O)(=O)N1CCCCC1 | -0.587% |
| COCCNC(=O)/C(=C/c1ccccc1Cl)c1ccccc1 | -0.406% |
| O=C1c2ccccc2C(=O)N1CCc1nc2ccccc2c(=O)n1CCCn1ccnc1 | -62.5% |
| Cc1sc2nc(C(C)C)oc(=O)c2c1C | 18% |
| COc1ccccc1CNC(=O)CCNC(=O)Cn1ccc2ccccc2c1=O | 7.4% |
| Cc1ccc(N2C(=S)SC3CS(=O)(=O)CC32)cc1 (stereo not shown) | -0.491% |
| Cc1nc2c3c(sc2c(=O)[nH]1)NC(=O)CC3c1ccccc1Cl (stereo not shown) | 0.707% |
| CCOC(=O)c1c(C)[nH]c(C(=O)OCC(=O)c2ccccc2)c1C | -2% |
| Cc1ccc(NC(=O)NNS(=O)(=O)c2ccc(Br)cc2)cc1 | 19.6% |
| COc1ccccc1-n1c(SCC(=O)Nc2cccc(S(N)(=O)=O)c2)nc2ccccc2c1=O | 8.61% |

| SMILES | hERG current change (%, negative = inhibition) at 10uM |
| --- | --- |
| CCN(CC)CC.CCn1c(=S)sc2c(=O)n(-c3ccccc3)c(=S)[nH]c21 | 23.4% |
| N=C1c2ccccc2CN1c1ccc(F)c([N+](=O)[O-])c1 | -22% |
| CC(=O)Nc1ccc(NS(=O)(=O)c2cc(-c3n[nH]c(=O)c4ccccc34)ccc2C)cc1 | 6.61% |
| CSCSC1=C(C#N)C(c2ccc(Cl)cc2)C(C(C)=O)=C(C)N1 (stereo not shown) | -23.5% |
| CCC1CCCCN1C(=O)c1ccc(OC2CCN(C(=O)CCOC)CC2)cc1 (stereo not shown) | 11.9% |
| CNC(=O)Oc1cccc2ccccc12 | 13.1% |
| COc1ccccc1-n1c(=O)c2c3c(sc2n2c(SC(C)C)nnc12)CCC3 | -4.22% |
| Cc1cc(OCCCCCN2CCCC2)ccc1Cl.O=C(O)C(=O)O | -77.2% |
| COc1ccc(CCNC(=O)C(=O)NCC2CCCO2)cc1 (stereo not shown) | -0.535% |
| CCCCCCNC(=O)c1cc(-c2ccco2)nc2ccccc12 | -11.5% |
| Cc1ccc(Nc2c([N+](=O)[O-])cc(C(=O)N3CC(=O)Nc4ccccc43)cc2[N+](=O)[O-])c(C)c1 | 15.2% |
| Cc1c(C(=O)Nc2c(C)n(C)n(-c3ccccc3)c2=O)oc2ccc(Cl)cc12 | -51.3% |
| Nc1[nH]n(-c2ccccc2)c(=O)c1N=Nc1ccccc1 | -6.53% |
| CCc1ccccc1NC(=O)N1CCCc2ccccc21 | 12.9% |
| Cc1nn(-c2ccccc2)c(Cl)c1C(=O)NCC(=O)O | 24.5% |
| COc1nccc(C(F)(F)F)c1C(=O)Nc1ccc(Cl)cc1 | 1.49% |
| COc1ccc2oc(=O)c(C(=O)N3CCN(C(=O)c4ccccc4)CC3)cc2c1 | -1.64% |
| COc1ccc(Cl)cc1C(=O)OCC(=O)c1ccc[nH]1 | 12.6% |
| Cc1ccc(-c2cc(C)nc3nc(N)nn23)cc1 | -0.72% |
| O=C(CCS(=O)(=O)c1ccc(F)cc1)Nc1nnc(-c2ccc(F)cc2)o1 | -10.7% |
| Cc1cc(C(=O)N2CCN(C(=O)C3CCCO3)CC2)no1 (stereo not shown) | 5.96% |
| COc1ccc2c(c1OC)C(=O)OC2CC(=O)c1ccc(O)c(O)c1 (stereo not shown) | 21.8% |

| SMILES | hERG current change (%, negative = inhibition) at 10uM |
| --- | --- |
| C=CCc1c(C)nc(N2CCSCC2)[nH]c1=O | 14.5% |
| O=C(NNc1nc(-c2ccccc2)cs1)c1ccc(F)cc1 | 11.4% |
| O=C(CCN1CCN(c2ccccc2)CC1)Nc1ccccc1 | -22.9% |
| O=[N+]([O-])c1ccc(CNc2ccc(F)cc2)s1 | -28.5% |
| O=C1NC(=S)N(c2ccc(Br)cc2)C(=O)/C1=C/N1CCN(C(=O)c2ccco2)CC1 | 23% |
| CC(=O)c1ccc(NC(=O)C2CC2c2ccccc2)cc1 (stereo not shown) | 3.25% |
| C=CCOC(=O)CCC(=O)Nc1cc(OC)nc(OC)n1 | 7.4% |
| O=C(Nc1cc(Cl)cc(Cl)c1)C(NCC1CCCO1)c1ccccc1 (stereo not shown) | -38.9% |
| CCCn1c(CN2CCN(C(=O)OCC)CC2)nc2cc(NC(C)=O)ccc21 | 12.8% |
| COc1ccc(NC(=O)COC(=O)c2ccc(S(=O)(=O)N3CCCC3)cc2)cc1OC | 14.9% |
| COc1ccc(/C=C/C(=O)C2CC2)cc1COc1cccc(C)c1C | 7.8% |
| NC(=O)C1CCN(C(=O)CN2C(=O)c3ccccc3S2(=O)=O)CC1 | 7.87% |
| Cc1csc(=O)n1CC(=O)OCC(=O)Nc1cc([N+](=O)[O-])ccc1Cl | -4.67% |
| O=[N+]([O-])c1ccc(N2CCCCC2)s1 | 6.32% |
| COCCCNC(=O)c1ccc(Cn2c(=O)c3ccccc3n(Cc3ccccc3C)c2=O)cc1 | 16.2% |
| Cc1ccccc1Nc1nnc(SCC(=O)NC(=O)NCc2ccco2)s1 | 5.78% |
| CCOc1ccc(N=C2NC(=O)S/C2=C\c2ccc(O)cc2)cc1 | 8.13% |
| CN1/C(=C\C(=O)CSc2nncn2C)C(C)(C)c2ccccc21 | 1.36% |
| CC(=O)c1c(C)[nH]c(C(=O)CSc2nnc(-c3cccs3)n2Cc2ccccc2)c1C | -25.6% |
| CCOC(=O)c1ccc(NC(=O)c2c(NC(=O)CCC(=O)O)sc3c2CCCCC3)cc1 | 16.9% |
| O=C(O)Cc1cccc2ccccc12 | 16.6% |
| C=CCNCCOCCOc1ccccc1-c1ccccc1.O=C(O)C(=O)O | -33.7% |

| SMILES | hERG current change (%, negative = inhibition) at 10uM |
| --- | --- |
| CCOC(=O)C1=C(C)NC2=C(C(=O)CCC2)C1c1cn(Cc2ccc(Cl)cc2Cl)nc1-c1ccccc1 (stereo not shown) | -8.5% |
| COc1ccc(-c2cccc(C(=O)NCC(=O)O)c2)cc1 | 7.91% |
| COC(=O)C(Cc1ccc(O)cc1)NC(=O)C(CC(=O)OC(C)(C)C)NC(=O)OC(C)(C)C (stereo not shown) (Boc-Asp(OtBu)-Tyr-OMe; configuration not given here) | -3.05% |
| Cc1cc(=O)[nH]c2ccc(S(=O)(=O)NCc3ccccc3)cc12 | -32.5% |
| COc1cc2c(cc1NC(=O)c1cccc([N+](=O)[O-])c1C)oc1ccccc12 | -8.76% |
| CC1=NN(C(=O)c2cccc(Cn3nc(C)c([N+](=O)[O-])c3C)c2)C(O)(C(F)(F)F)C1 (stereo not shown) | 0.484% |
| CC(C)CCNC(=O)CN1C(=O)CN=C(c2ccccc2)c2ccccc21 | -4.29% |
| O=C(NCCS(=O)(=O)N1CCCCC1)c1ccccc1 | -5.44% |
| O=C(Nc1ccccc1)c1ccc(S(=O)(=O)N2CCCC2)cc1 | -3.46% |
| Cc1ccc(/C=N/NC(=O)c2csc3c2CCCC3)cc1 | 6.73% |
| CCn1ncc(Br)c1C(=O)NC(C)c1ccccc1 (stereo not shown) | 3.91% |
| Cc1cc2cc(C#N)c(N3CCN(S(C)(=O)=O)CC3)nc2cc1C | -7.09% |
| CCC(=O)Nc1cccc(NC(=O)c2cccc([N+](=O)[O-])c2)c1 | -61.2% |
| C=CCn1c(SCCC(=O)O)nnc1-c1cccs1 | 6.75% |
| COc1ccc(C2(C(=O)NC(C)C)CCCC2)cc1OC | 2.35% |
| C#CCNC(=O)C1=C[C@@H](c2ccc3c(c2)OCO3)[C@H](CCCO)[C@@H](OCC)O1 | 14% |
| CC1CC(C)CN(C(=O)COC(=O)Cc2ccc(Br)cc2)C1 (stereo not shown) | 16.5% |
| O=C(/C=C/c1ccco1)NCC1CCCO1 (stereo not shown) | 11.5% |
| Cc1c(C)c2ccc(OCC(=O)N3CC[C@@]4(O)CCCC[C@H]4C3)cc2oc1=O | -5.69% |
| COc1cc2c(c(OC)c1OC)-c1c(cc(OC)c(OC)c1OC)C[C@H](C)[C@H](C)C2 | -71.9% |
| CCN(CC)CCCn1c(=S)[nH]c2cc(C(=O)OC)ccc2c1=O | -33% |
| Cc1cc(C)c2c(-n3cccc3)c(C(=O)NNS(=O)(=O)c3ccc(Cl)cc3)sc2n1 | 0.175% |
